The results in this text go back to the antibiotic and cytotoxicity screens of Wong et al. (2023).

In assay [1] the test system is HSkMC (human skeletal muscle cells). As to the kind of experiment: cytotoxicity call (relative viability < 0.9). The settings on record: 10 µM.
Assay [2] concerns HepG2. In words: cytotoxicity call (relative viability < 0.9). The settings on record: 10 µM.
For assay [3], the system named is S. aureus RN4220. In words: growth inhibition call (relative growth <= 0.2). The settings on record: 50 µM.

The other results are listed elsewhere or left out.

`C[C@@H]1CN([C@@H](C)CO)C(=O)c2cc(NC(=O)CCC(F)(F)F)ccc2O[C@@H](C)CCCCO[C@H]1CN(C)C(=O)CCC(F)(F)F`: the cytotoxicity call in assay [1] and in assay [2] was “inactive” throughout. Also, the growth inhibition call in assay [3] is “inactive”.
`COc1ccc(S(=O)(=O)Nc2ccc3c(c2)C(=O)N([C@H](C)CO)C[C@@H](C)[C@H](CN(C)Cc2ccc4c(c2)OCO4)OCCCC[C@H](C)O3)cc1`: the cytotoxicity call in assay [1] and in assay [2] was “inactive” throughout. Moreover, the growth inhibition call in assay [3] was “inactive”.
For `NC(=O)NCC#Cc1ccc2c(c1)[C@]1(C(=O)N2)[C@H](C(=O)O)[C@H]2C(=O)O[C@H](c3ccccc3)[C@H](c3ccccc3)N2[C@@H]1c1ccc(OCCO)cc1`, the cytotoxicity call in assay [1] and in assay [2] was “inactive” in each case. Further, in assay [3], the growth inhibition call was “inactive”.
For the molecule `C[C@@H]1COCC(=O)N1`, the cytotoxicity call in assay [1] and in assay [2] was “inactive” in each case. Also, the growth inhibition call in assay [3] was “inactive”.
As for `COc1ccc(S(=O)(=O)Nc2ccc3c(c2)C(=O)N([C@H](C)CO)C[C@H](C)[C@@H](CN(C)Cc2ccc(C(F)(F)F)cc2)OCCCC[C@@H](C)O3)cc1`, in assay [1], the cytotoxicity call is “active”. Further, in assay [2], the cytotoxicity call was “inactive”. Moreover, in assay [3], the growth inhibition call was “inactive”.
On to `C[C@H]1CN([C@@H](C)CO)C(=O)c2cc(NC(=O)CCN3CCOCC3)ccc2O[C@@H]1CN(C)S(=O)(=O)c1cn(C)cn1`, for which the cytotoxicity call in assay [1] and in assay [2] was “inactive” in each case. Further, the growth inhibition call in assay [3] is “inactive”.
Take `Br.CN(C)CCCC1(c2ccc(F)cc2)OCc2cc(C#N)ccc21` (stereo not drawn): the cytotoxicity call in assay [1] and in assay [2] was “inactive” each time. Also, the growth inhibition call in assay [3] is “inactive”.
As for `COc1ccccc1S(=O)(=O)N[C@H]1CC[C@@H](CCNC(=O)C2CCOCC2)O[C@@H]1CO`, the cytotoxicity call in assay [1] and in assay [2] was “inactive” each time. Besides, in assay [3], the growth inhibition call is “inactive”.
Regarding `CC(=O)N[C@H]1CC[C@H](CCNC(=O)C2CC2)O[C@@H]1CO`, the cytotoxicity call in assay [1] and in assay [2] was “inactive” in each case. For the same molecule, the growth inhibition call in assay [3] was “inactive”.
With `Cc1cc(O)n(C[C@H]2CCCO2)c(=O)c1C#N`, the cytotoxicity call in assay [1] and in assay [2] was “inactive” each time. For the same molecule, the growth inhibition call in assay [3] is “inactive”.
`Cc1cccc(S(=O)(=O)N2C[C@H](O)COC[C@@H]3O[C@@H](CC(=O)NCc4ccc5c(c4)OCO5)CC[C@H]32)c1`: the cytotoxicity call in assay [1] and in assay [2] was “inactive” in each case. The growth inhibition call in assay [3] was “inactive”.
